Read counts are not given, so values of variants with three or more changes are uncertain.

This passage reports self-cleavage results from the RNAGym collection of RNA variant scans (doi:10.7554/elife.90254).

The labels stand for the following.
B1: OR4K15 (parent)
chain: GUUAACGGUCAUAGGCCAUGGAAACUAGGAGCACCAUUUCGCUGCCAGUGAAGAAAUGAACAAAGAAAAUCUGGGCCAGGCAGGCAUCAAAAGAAAUAGUCUUGCGCUCAACCAGAAAGUCUGUAAUCAUUUUAAGGGUA

In this data set the parent is B1. Briefly: self-cleavage, relative activity (ratio to wild type); higher = more cleavage; in vitro, sequencing; the parent is a self-cleaving ribozyme.
Regarding A66G A78U A89G, the self-cleavage was found to be 0.35. For C61U C71A A94C U122C C128U the value was 0.04; for A64G A129G U132C, 2.03; for A60G A110U A135G, 0.75. A63G A78G U103C: the self-cleavage came out at 0.08.

As for A63U A82G A118G U132C, the self-cleavage amounted to 0.22. For A64G U122C A129G the value was 1.4. For A63G U72A U108C the value was 0.02. As for C61U U120C G123A, the self-cleavage came to 1.59. For A66G U124C A135G the value was 0.19; for A62G A63G A96G, 1.29. As to A66G A90G U127A, the self-cleavage came to 2.36.

With A64G A86G U139A, the self-cleavage stood at 1.42. As to A66U A67G A91G, the self-cleavage stood at 0.9.

For the variant A60U C61U A63G, the self-cleavage was determined as 2.17. In the case of A63G A67G U122C, the self-cleavage came to 1.17. For A64G U139C A140G the value was 1.55. For A60G A111G A118G the value was 0.01; for A62G U102C U103C, 0.46. For A60G C85U G119A the value was 1.06; for A64G A68G U120C A126G, 0.51. Turning to A60G U100C U124G, the self-cleavage worked out at 0.96. For A66G A118G U122C the value was 1.23; for A64G G106A U120A, 0.03.

For the variant A62U A63G U87C, the self-cleavage is 0.95. In the case of A66G A68G A92G U124G, the self-cleavage came out at 0.94.

As for A62G U72C U131C, the self-cleavage stood at 0.12. For the variant A67G A91G A126G, the self-cleavage came to 0.4. In the case of A67G A94G A110G A135G, the self-cleavage worked out at 0.04. For A63U U103C A118G the value was 0.72. For A63G A96G A111G the value was 0.02; for A64U A110U A114G A129G, 0.08.

As for A62U A78U U120C, the self-cleavage came out at 0.23. For the variant A62G U87C C105U, the self-cleavage worked out at 0.12. As for A63G U72A A89G A117U, the self-cleavage was 0.34. For A60G A78U U100C the value was 0.78; for A62U G65A U122C, 1.05; for A63G C76A A116G, 0.05.

Regarding A66G A69G A78C, the self-cleavage was found to be 0.43. As for A62G A63U U108A, the self-cleavage was 0.01. Take A64G A92U A126C: the self-cleavage amounted to 2. For A63G A68G A92G the value was 1.23. For A62G A86G A110C U131C U132C, the self-cleavage was found to be 0.2. For A62C A67U A140U the value was 1.13; for A63G A66U U120C, 1.8; for A63G A66G A78G U103C U131C, 0.06. For A67G A92U A118G the value was 1.52; for A60G A68G U100C, 1.59; for A62U U87G A134G, 0.41. With A64G A68U U132C A134G, the self-cleavage worked out at 1.37.

Consider A64G A69G U124A, for which the self-cleavage is 0.34. As to A60G A118G A126G, the self-cleavage was 0.42. For A66G U103C A114G U122A the value was 0.09.

In the case of A63G A66G U108C C109U, the self-cleavage was 0.01. For the variant A63U U97C A117G, the self-cleavage was 2.11. For A66G A86G C105U A111G the value was 0.04; for A67G A78U A98C, 0.43; for A66U A86U U131C A134U G137C, 2.38. A66G U72A A118G U120C U122C: the self-cleavage came out at 0.01. For A63U A66G A78G A96G the value was 0.36; for A63G U87C A118G, 0.44; for A67G A82U U139A, 0.15. For A60G U97C U103C the value was 0.82; for A62U A78C A90G, 0.25; for A60U G65A A110G, 0.17. For A66U G74U A126G the value was 0.16; for A62G U103G A114G U124C, 0. A67G A78G G104A A114U U130A: the self-cleavage is 0.01.

Take A67G A91G A129G: the self-cleavage stood at 0.73. A60G A129G U131C: the self-cleavage was 0.96. For the variant A64G C77U A94G U124C A126U U133C, the self-cleavage is 1. For A60G A67G A86G A117G A118G the value was 1.94.

For the variant A63U A82G A96G A118G U120C U132C, the self-cleavage is 0.11. Take A62G A69G U72C: the self-cleavage came out at 0.13. C61A A66G A78G: the self-cleavage was 0.14. For A62C A90G A96G A126G the value was 0.39; for A67G A90G C113G, 0.

On to A62U A69G A118G U130C, for which the self-cleavage turned out to be 0.25. For the variant A64G A114G C121U, the self-cleavage worked out at 0.85.

As for A60G U100A U103G A110G, the self-cleavage is 0.04. On to A67G A86G A98G U103A U132C, for which the self-cleavage stood at 0.05. For A63G A82U A96G, the self-cleavage came to 0.23. For A60G A91G U130C the value was 0.3; for A62G A89G U108C, 0.02. Take A62U A78G A91G U139A: the self-cleavage was 0.07. A66G C107U U131C: the self-cleavage turned out to be 0. For A66G A68G A90G the value was 0.56; for A62G A78G A118G, 0.13.

As to A62G U102C A125G, the self-cleavage is 0.46.

As to A60G A67G A82U U87G, the self-cleavage was found to be 0.12. Take A63G A114U U122A U124C: the self-cleavage is 0.08. For A63G A68G C77U U122C the value was 2.27; for A60G A63G A114G, 1.18. For A60G A63G A69G A116G A129C the value was 0.16; for A66G A82G U131C, 0.26. For A67G A86U A135G, the self-cleavage was determined as 0.65. On to A67G A82G U127C, for which the self-cleavage amounted to 0.25. For A63G A67G U87C U97A G138U the value was 1.32. Consider A62G A67G C76U, for which the self-cleavage amounted to 0.18. For A62G A118G U139A the value was 0.74; for A64U A66G U130C U132C, 0.48. For A63U U72C A90G A95G A126C the value was 0.24; for A64G A91G A94G, 1.78. In the case of A63G A91G U102C, the self-cleavage was 1.92. Regarding A66G U72C U132C, the self-cleavage amounted to 0.28. For the variant A60U A67G U120C, the self-cleavage came to 0.62. As to A64G U102A A117G U127A, the self-cleavage turned out to be 1.68.

Turning to A63G A111G U131C, the self-cleavage came out at 0.01. For A62G A89U U103C A129G the value was 1.25. For A63G A89G U132C the value was 1.85.

In the case of A60G A68G A90G A114U, the self-cleavage stood at 0.03. For A64G A89G G99A the value was 0.23; for A64G U97C A135U, 1.5; for A63G A68G U87C U132A, 1.1. For A64C A68G U122A U130C the value was 0.55.

Consider A63G A96G A116G U131C, for which the self-cleavage came out at 1.13. Consider A63G A68C A96G U122C U127C U139C, for which the self-cleavage amounted to 0.36. For A67G A91G A92G the value was 1.56; for A66G C85G A110G, 0.17. For the variant A66G A92G A135G, the self-cleavage came out at 2.03. Regarding G65A A82G U120A U122C, the self-cleavage is 0.45.

On to C61G A94G A116G, for which the self-cleavage was found to be 0.89. For A64G U102C A114U the value was 0.07; for A62U U87C U127C, 0.91. Regarding A62U A111C A117G, the self-cleavage worked out at 0.

As to A67G A69G U122A, the self-cleavage amounted to 1.39.

Regarding A63U A89U A110U A135U, the self-cleavage was found to be 0.89. For A60G U102G A117G, the self-cleavage was 0.77. As for G65A A116G U132C, the self-cleavage is 0.25. Consider A62G A111G A125G A126G, for which the self-cleavage came to 0. Regarding A60G A67G A69G A91G, the self-cleavage amounted to 0.52. For the variant A62G U102C U122A, the self-cleavage was found to be 2.31. For the variant A66G A69G A129C, the self-cleavage was found to be 0.9. In the case of A63U A66U U132C, the self-cleavage is 0.55. For A62G A66G U87A the value was 1.17; for A66G U72C A90G, 0.24. Consider A60G A86G A92G U132C, for which the self-cleavage worked out at 0.53. With A60G A66G G80A, the self-cleavage worked out at 0.16. For A64G A68G U120A A129U the value was 0.44; for A60G A67G A94U, 1.27. For A63G A86G A94G the value was 1.36; for A64U A69G U103C A114G G138A, 0.1; for G65U A94G U100C, 2.07. For A66G U70C A129G the value was 0.41.

A60U A96U U103C A134U: the self-cleavage was found to be 1.37. For A60G A67G G83A U127A the value was 1.24; for A63G A111G U124A, 0.02; for A64U A89G A114G, 0.02. As to A63G U102A A135U, the self-cleavage was 1.58.

Consider A66U A116U A126U, for which the self-cleavage amounted to 0.22. For A60G C85A A125G the value was 0.65. Consider A66G A95G U103C, for which the self-cleavage is 1.49. For C61U C77U G123A the value was 2.62; for A63G A66G A78G U127A, 0.5. For the variant A60G A63G A116G, the self-cleavage turned out to be 0.39.

Consider A63G A94G U122A, for which the self-cleavage turned out to be 1.22.

As to A64U U100C A135G, the self-cleavage was 2.93. Consider A62G U97C A140G, for which the self-cleavage is 1.62. Take A62G U108A A116G: the self-cleavage came out at 0.02. In the case of A60G U87C U122C, the self-cleavage was found to be 0.2. On to A66U A78G U127C, for which the self-cleavage was found to be 0.18. Take A63G A111G A118G: the self-cleavage was 0. Turning to A62G A114G A116G, the self-cleavage came to 0.04. Take A60G U102C U120A: the self-cleavage was found to be 2.52. For A63G U102C U133C the value was 1.95. In the case of A62C C85A A114U A125G, the self-cleavage is 0. Turning to A66G A69C A89U, the self-cleavage came out at 1.76.
